# Experimental data reported in the supplement of paper PMC8728848.
# The other results are listed elsewhere or left out.
# B1: SLR2P3F12 (Tachypleus tridentatus), TAL2_TACTR (protein)
# chain: MEKGTPPTHDSDNWMGRAKKIGNGGWNQFQFLFFDPNGYLYAVSKDKLYKASPPQSDTDNWIARATEIGSGGWSGFKSLFFHPNGYLYAVHGQRLYKALPPVSNQD
# Assays:
# Experiment in all cases: glycan array binding signal (z-score within array); higher = stronger binding
# Settings in all cases: glycan notation: IUPAC condensed, linker removed
# [1] = target: Man(a1-3)[Man(a1-6)]Man(a1-6)[Man(a1-3)]Man
# Method in brief: (§1)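 Negative Z-scores can be read as non-binding. The Z-score is calculated within each array and then averaged across arrays of one protein sequence at different concentrations or buffers and across linkers. Arrays, 3228 in all, were curated from the Consortium for Functional Glycomics database and kept only where the protein sequence was available.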
# [2] = target: Man(a1-3)[Man(a1-6)]Man(a1-6)[Man(a1-3)]Man(b1-4)GlcNAc(b1-4)GlcNAc
# Method in brief: as §1
# [3] = target: Man(a1-3)[Man(a1-6)]Man(b1-4)GlcNAc(b1-4)GlcNAc
# Method in brief: as §1
# Man(a1-6)Man = target: Man(a1-6)Man
# Method in brief: as §1
# Man(b1-4)GlcNAc = target: Man(b1-4)GlcNAc
# Method in brief: as §1
# Neu5Ac(a2-3)Gal = target: Neu5Ac(a2-3)Gal
# Method in brief: as §1
# [4] = target: Neu5Ac(a2-3)Gal(b1-3)GalNAc
# Method in brief: as §1
# [5] = target: Neu5Ac(a2-3)Gal(b1-3)GalNAc(b1-3)Gal(a1-4)Gal(b1-4)Glc
# Method in brief: as §1
# [6] = target: Neu5Ac(a2-3)Gal(b1-3)GalNAc(b1-3)Gal(b1-4)GlcNAc
# Method in brief: as §1
# [7] = target: Neu5Ac(a2-3)Gal(b1-3)GalNAc(b1-4)[Neu5Ac(a2-3)]Gal(b1-4)Glc
# Method in brief: as §1
# [8] = target: Neu5Ac(a2-3)Gal(b1-3)GalNAc6S
# Method in brief: as §1
# [9] = target: Neu5Ac(a2-3)Gal(b1-3)GlcNAc
# Method in brief: as §1
# [10] = target: Neu5Ac(a2-3)Gal(b1-3)GlcNAc(b1-3)Gal(b1-3)GlcNAc
# Method in brief: as §1
# [11] = target: Neu5Ac(a2-3)Gal(b1-3)GlcNAc6S
# Method in brief: as §1
# [12] = target: Neu5Ac(a2-3)Gal(b1-3)[Fuc(a1-4)]GlcNAc
# Method in brief: as §1
# [13] = target: Neu5Ac(a2-3)Gal(b1-3)[Fuc(a1-4)]GlcNAc(b1-3)Gal(b1-4)[Fuc(a1-3)]GlcNAc
# Method in brief: as §1
# [14] = target: Neu5Ac(a2-3)Gal(b1-3)[Neu5Ac(a2-3)Gal(b1-4)]GlcNAc
# Method in brief: as §1
# [15] = target: Neu5Ac(a2-3)Gal(b1-3)[Neu5Ac(a2-6)]GalNAc
# Method in brief: as §1
# Neu5Ac(a2-3)Gal(b1-4)Glc = target: Neu5Ac(a2-3)Gal(b1-4)Glc
# Method in brief: as §1
# [16] = target: Neu5Ac(a2-3)Gal(b1-4)GlcNAc
# Method in brief: as §1
# [17] = target: Neu5Ac(a2-3)Gal(b1-4)GlcNAc(b1-2)Man(a1-3)[GlcNAc(b1-2)Man(b1-4)GlcNAc(b1-2)Man(a1-6)]Man(b1-4)GlcNAc(b1-4)GlcNAc
# Method in brief: as §1
# [18] = target: Neu5Ac(a2-3)Gal(b1-4)GlcNAc(b1-2)Man(a1-3)[Neu5Ac(a2-6)Gal(b1-4)GlcNAc(b1-2)Man(a1-6)]Man(b1-4)GlcNAc(b1-4)GlcNAc
# Method in brief: as §1
# [19] = target: Neu5Ac(a2-3)Gal(b1-4)GlcNAc(b1-3)Gal(b1-3)GlcNAc
# Method in brief: as §1
# [20] = target: Neu5Ac(a2-3)Gal(b1-4)GlcNAc(b1-3)Gal(b1-4)GlcNAc
# Method in brief: as §1
# [21] = target: Neu5Ac(a2-3)Gal(b1-4)GlcNAc(b1-3)Gal(b1-4)GlcNAc(b1-3)Gal(b1-4)GlcNAc
# Method in brief: as §1
# [22] = target: Neu5Ac(a2-3)Gal(b1-4)GlcNAc(b1-3)Gal(b1-4)[Fuc(a1-3)]GlcNAc
# Method in brief: as §1
# [23] = target: Neu5Ac(a2-3)Gal(b1-4)GlcNAc(b1-6)[Gal(b1-3)]GalNAc
# Method in brief: as §1
# [24] = target: Neu5Ac(a2-3)Gal(b1-4)GlcNAc(b1-6)[Neu5Ac(a2-3)Gal(b1-3)]GalNAc
# Method in brief: as §1
# [25] = target: Neu5Ac(a2-3)Gal(b1-4)GlcNAc6S
# Method in brief: as §1
# [26] = target: Neu5Ac(a2-3)Gal(b1-4)[Fuc(a1-3)]GlcNAc
# Method in brief: as §1
# [27] = target: Neu5Ac(a2-3)Gal(b1-4)[Fuc(a1-3)]GlcNAc(b1-3)Gal
# Method in brief: as §1
# [28] = target: Neu5Ac(a2-3)Gal(b1-4)[Fuc(a1-3)]GlcNAc(b1-3)Gal(b1-4)GlcNAc
# Method in brief: as §1
# [29] = target: Neu5Ac(a2-3)Gal(b1-4)[Fuc(a1-3)]GlcNAc(b1-3)Gal(b1-4)[Fuc(a1-3)]GlcNAc(b1-3)Gal(b1-4)[Fuc(a1-3)]GlcNAc
# Method in brief: as §1
# [30] = target: Neu5Ac(a2-3)Gal(b1-4)[Fuc(a1-3)]GlcNAc(b1-6)[Gal(b1-3)]GalNAc
# Method in brief: as §1
# [31] = target: Neu5Ac(a2-3)Gal(b1-4)[Fuc(a1-3)]GlcNAc6S
# Method in brief: as §1
# [32] = target: Neu5Ac(a2-3)Gal6S(b1-4)GlcNAc
# Method in brief: as §1
# [33] = target: Neu5Ac(a2-3)Gal6S(b1-4)[Fuc(a1-3)]GlcNAc
# Method in brief: as §1
# Neu5Ac(a2-3)GalNAc = target: Neu5Ac(a2-3)GalNAc
# Method in brief: as §1
# [34] = target: Neu5Ac(a2-3)GalNAc(b1-4)GlcNAc
# Method in brief: as §1
# [35] = target: Neu5Ac(a2-3)[GalNAc(b1-4)]Gal(b1-4)Glc
# Method in brief: as §1
# [36] = target: Neu5Ac(a2-3)[GalNAc(b1-4)]Gal(b1-4)GlcNAc
# Method in brief: as §1
# [37] = target: Neu5Ac(a2-3)[Neu5Ac(a2-6)]GalNAc
# Method in brief: as §1
# Neu5Ac(a2-6)Gal = target: Neu5Ac(a2-6)Gal
# Method in brief: as §1
# Neu5Ac(a2-6)Gal(b1-4)Glc = target: Neu5Ac(a2-6)Gal(b1-4)Glc
# Method in brief: as §1
# [38] = target: Neu5Ac(a2-6)Gal(b1-4)GlcNAc
# Method in brief: as §1
binder,measurement,setting,value
B1,glycan array binding signal (z-score),[1],-0.286
same,glycan array binding signal (z-score),[2],-0.097
same,glycan array binding signal (z-score),[3],0.138
same,glycan array binding signal (z-score),Man(a1-6)Man,-0.338
same,glycan array binding signal (z-score),Man(b1-4)GlcNAc,-0.531
same,glycan array binding signal (z-score),Neu5Ac(a2-3)Gal,-0.415
same,glycan array binding signal (z-score),[4],0.414
same,glycan array binding signal (z-score),[5],-0.245
same,glycan array binding signal (z-score),[6],-0.408
same,glycan array binding signal (z-score),[7],-0.145
same,glycan array binding signal (z-score),[8],-0.182
same,glycan array binding signal (z-score),[9],-0.317
same,glycan array binding signal (z-score),[10],-0.5
same,glycan array binding signal (z-score),[11],-0.219
same,glycan array binding signal (z-score),[12],0.152
same,glycan array binding signal (z-score),[13],-0.269
same,glycan array binding signal (z-score),[14],-0.22
same,glycan array binding signal (z-score),[15],-0.28
same,glycan array binding signal (z-score),Neu5Ac(a2-3)Gal(b1-4)Glc,-0.36
same,glycan array binding signal (z-score),[16],-0.473
same,glycan array binding signal (z-score),[17],-0.394
same,glycan array binding signal (z-score),[18],-0.166
same,glycan array binding signal (z-score),[19],-0.298
same,glycan array binding signal (z-score),[20],-0.519
same,glycan array binding signal (z-score),[21],-0.465
same,glycan array binding signal (z-score),[22],-0.129
same,glycan array binding signal (z-score),[23],0.443
same,glycan array binding signal (z-score),[24],0.799
same,glycan array binding signal (z-score),[25],-0.263
same,glycan array binding signal (z-score),[26],1.16
same,glycan array binding signal (z-score),[27],0.101
same,glycan array binding signal (z-score),[28],-0.203
same,glycan array binding signal (z-score),[29],0.353
same,glycan array binding signal (z-score),[30],2.75
same,glycan array binding signal (z-score),[31],0.052
same,glycan array binding signal (z-score),[32],-0.293
same,glycan array binding signal (z-score),[33],-0.353
same,glycan array binding signal (z-score),Neu5Ac(a2-3)GalNAc,-0.375
same,glycan array binding signal (z-score),[34],0.435
same,glycan array binding signal (z-score),[35],-0.517
same,glycan array binding signal (z-score),[36],-0.511
same,glycan array binding signal (z-score),[37],-0.296
same,glycan array binding signal (z-score),Neu5Ac(a2-6)Gal,-0.276
same,glycan array binding signal (z-score),Neu5Ac(a2-6)Gal(b1-4)Glc,-0.125
same,glycan array binding signal (z-score),[38],-0.317
